The other results are listed elsewhere or left out. Further columns of the screen follow, without active or inactive calls.
How the values were obtained:
Test in all cases: Primary Screen for Target Class Profiling of Small Molecule Inhibitors of Methyltransferases
[1] = target: Glycine N-methyltransferase (Homo sapiens) (UniProt Q14749); conditions: purified enzyme, MTase-Glo SAH luminescence; measured here: GNMT inhibition; at 40 µM; stronger effect = lower value
Summary of the method: (§1)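 Each enzyme was reacted with SAM and its substrate, with compounds tested once at 40 uM; SAH formed was read by MTase-Glo luminescence.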

[2] = target: Guanidinoacetate N-methyltransferase (Homo sapiens) (UniProt Q14353); conditions: purified enzyme, MTase-Glo SAH luminescence; measured here: GAMT inhibition; at 40 µM; stronger effect = lower value
Summary of the method: as §1

[3] = target: Histamine N-methyltransferase (Homo sapiens) (UniProt P50135); conditions: purified enzyme, MTase-Glo SAH luminescence; measured here: HNMT inhibition; at 40 µM; stronger effect = lower value
Summary of the method: as §1

[4] = target: Nicotinamide N-methyltransferase (Homo sapiens) (UniProt P40261); conditions: purified enzyme, MTase-Glo SAH luminescence; measured here: NNMT inhibition; at 40 µM; stronger effect = lower value
Summary of the method: as §1

[5] = target: Phenylethanolamine N-methyltransferase (Homo sapiens) (UniProt P11086); conditions: purified enzyme, MTase-Glo SAH luminescence; measured here: PNMT inhibition; at 40 µM; stronger effect = lower value
Summary of the method: as §1
% is scaled to controls: 0 for no effect and ±100 for the full control effect.

| Structure (SMILES) | activity change, negative = inhibition [1] [%] | activity change, negative = inhibition [2] [%] | activity change, negative = inhibition [3] [%] | activity change, negative = inhibition [4] [%] | activity change, negative = inhibition [5] [%] |
| --- | --- | --- | --- | --- | --- |
| CN(C)C[C@@H]1CN(S(C)(=O)=O)C[C@H]1NC(=O)c1ccc2[nH]ccc2c1 | -5.3 | -12 | -4.76 | -12.2 | -10.4 |
| CCOC(=O)c1cc2n(n1)CC(C)(C(=O)NCc1ccccc1OC)N(c1ccccc1CC)C2=O (stereo not drawn) | 5.74 | 4.07 | 11.9 | 7.54 | 5.75 |
| CCn1c(C2CCCN(S(=O)(=O)c3cccc4nonc34)C2)nn(C)c1=O (stereo not drawn) | -2.12 | -5.3 | 0.137 | -9.18 | -10.9 |
| COc1cccc(CC(=O)N[C@@H]2C[C@H](Cn3cc(-c4cccnc4)nn3)[C@@H](O)[C@H]2O)c1 | -8.07 | -8.15 | -6.31 | -14.1 | -11.2 |
| COc1ccc(CNC(=O)Cn2nc3n(CCCOC(C)C)c(=O)c4ccccc4n3c2=O)cc1 | 4.37 | 2.12 | 7.03 | 1.71 | 4.7 |
| Cc1ccc(C(=O)/C=C/c2ccccc2)s1 |  | -4.58 |  | -19.1 | -1.49 |
| CC(C)NC(=O)c1ccc2c(=O)n(C(C)C)c3nn(Cc4ccc(N5CCCC5=O)cc4)c(=O)n3c2c1 | 3.94 | 1.08 | 3.8 | -1.17 | -0.725 |
| COC(=O)c1ccc(NS(=O)(=O)c2ccc3c(c2)n(C)c(=O)n3C)cc1 | -0.126 | 0 | 12.5 | 15.2 | 2.72 |
| Cc1cc(C)cc(N2C(=O)c3ccccc3CC2(C)C(=O)NCc2ccccc2C)c1 (stereo not drawn) | 8.35 | 3.75 | 10.1 | 7.58 | 11.7 |
| COc1ccc(CN2C[C@@H](CO)[C@H](c3ccccn3)C2)cc1C | -4.14 | 0.916 | -12.5 | -4.01 | -3.18 |
| Cc1ccc2n1CCN(C(=O)Nc1ccc(F)c(Cl)c1)C2C(C)C (stereo not drawn) | 3.16 | 0 | -3.96 | -4.42 | -1.2 |
| CCCn1c(=O)c2ccc(C(=O)NCC(C)C)cc2n2c(=O)n(CC(=O)NC(C)C)nc12 | 3.97 | 0 | 4.56 | 0.866 | 2.58 |
| CSC(N)=NCCC[C@H](N)C(=O)O | 0.083 | 8.07 | -0.567 | -1.84 | 8.29 |
| CCOc1ccc(CNC(=O)Cn2ccc3cc(S(=O)(=O)N4CCCC4)ccc32)cc1 | -1.82 | -0.632 | 2.49 | -4.91 | -0.964 |
| O=C(CCc1nnc2n(Cc3ccc(F)cc3)c(=O)c3ccccc3n12)N1CCN(c2ccccn2)CC1 | -19.9 | 0 | -2.55 | -15.8 | -0.196 |
| C=C1C(=O)OC2C=C(C)CC/C=C(\CO)CC(O)C12 (stereo not drawn) | -0.903 | 2.01 | 3.77 | -8.72 | 5.92 |
| O=C(N[C@@H]1CC[C@@H](c2cccc(F)c2F)CN(CC(F)(F)F)C1=O)N1CCC(n2c(=O)[nH]c3ncccc32)CC1 | -9.84 | -1.37 | -0.234 | -37.8 | -6.95 |
| Cc1ccc(C)c(C(=O)Cn2nc3n(CC(C)C)c(=O)c4ccc(C(=O)NCC(C)C)cc4n3c2=O)c1 | -0.784 | 5.53 | 2.05 | 4.55 | 2.53 |
| O=C(C1CC(=O)N(C2CC2)C1)N1CCC(Oc2cccnc2)CC1 (stereo not drawn) | -6.43 | -11 | -5.26 | -12.2 | -9.7 |
| CCC(C(=O)NCc1ccccc1OC)n1ccc2cc(S(=O)(=O)N3CCCCC3)ccc21 (stereo not drawn) | 6.47 | 0.237 | 4.84 | 4.19 | 3.15 |

| Structure (SMILES) | activity change, negative = inhibition [1] [%] | activity change, negative = inhibition [2] [%] | activity change, negative = inhibition [3] [%] | activity change, negative = inhibition [4] [%] | activity change, negative = inhibition [5] [%] |
| --- | --- | --- | --- | --- | --- |
| CCOc1ccc(C2CC(=O)Nc3c2c(C)nn3CC(=O)O)c(OCC)c1C (stereo not drawn) | -4.37 | -3.27 | -1.38 | -0.668 | 3.7 |
| COc1ccc(CC(=O)NC2CCN(c3nnc4cccc(C)n34)CC2)cc1 | -12 | -12.8 | -4.7 | -8.92 | -5.67 |
| NCCCC(N)(C(=O)O)C(F)F (stereo not drawn) | 1.29 | 13.5 | 8.61 | -1.4 | 7.79 |
| CCOC(=O)c1cc2n(n1)CC(C)(C(=O)NC1CCCC1)N(c1cccc(Cl)c1C)C2=O (stereo not drawn) | 1.14 | 0 | -0.572 | 4.88 | 3.72 |
| COc1cccc(CNC(=O)CCc2nnc3n(CC(C)C)c(=O)c4ccccc4n23)c1 | -7.86 | 0.967 | -1.73 | -3.41 | -5.1 |
| C=CCn1c(=O)c2ccc(C(=O)NC(C)C)cc2n2c(=O)n(CC(=O)N(C)c3ccccc3)nc12 | 7.71 | 1.19 | 7.5 | 2.34 | 6.73 |
| CN1C(=O)c2cc(C(=O)Nc3ccccc3Cl)nn2CC1(C)C(=O)NC1CCCCC1 (stereo not drawn) | 2.49 | 0 | 7.4 | 7.16 | 1.84 |
| Cc1ccc(CNC(=O)c2ccc3c(=O)nc4c(-c5cccc(F)c5)n[nH]n4c3c2)cc1 | -2.72 | 7.95 | 0.276 | 3.5 | 0.498 |
| NC(=O)C1(c2nc(C3CCOC3)nn2-c2cccc3cccnc23)CC1 (stereo not drawn) | -3.56 | -2.25 | -1.16 | -7.79 | -5.69 |
| Cn1c(=O)n(C)c2cc(S(=O)(=O)NCCCc3ccccc3)ccc21 | -0.116 | 2 | -1.28 | -2.82 | -1.98 |
| CC(C)NC(=O)C[C@@H]1O[C@H](CNCc2ccc(F)cc2)[C@@H](O)[C@H]1O | -4.51 | -6.32 | -2.87 | -8.1 | -3.41 |
| CN1CC(=O)N(c2ccccc2F)Cc2c1ncnc2N1CCN(c2ncccn2)CC1 | -9.37 | -10.1 | -3.29 | -21.1 | -10.7 |
| CNC(=O)[C@@H]1CN(C(=O)c2cc(C)n(CCOC)c2C)C[C@H]1COC | -4.68 | -11.9 | -3.36 | -11.6 | -8.38 |
| COCCC(=O)N1CCC2(CCC2NC(=O)COC)CC1 (stereo not drawn) | -3.1 | -0.617 | 0.343 | -0.377 | 0.943 |
| CC(C)[C@@H]1CN(C(=O)c2scc3c2CCCC3)C[C@H]1NS(C)(=O)=O | -0.809 | -0.492 | 3.05 | -0.591 | 3.47 |
| CC(=O)NC1CC(=O)C23C(=O)NC(Cc4c[nH]c5ccccc45)C2C(C)=C(C)C(O)C3/C=C/CC(C)/C=C(/C)C(O)C1O (stereo not drawn) | 8.74 | 5.11 | 11.7 | -12.8 | 7.28 |
| CC(C)(C)CC(=O)NC[C@H]1O[C@H](Cc2cc(-c3ccc(F)cc3)on2)CC[C@@H]1O | -5.91 | -6.22 | -2.72 | -14 | -8.76 |
| CC(=O)N1CCC(C(=O)NCc2cccnc2N(C)Cc2ccccc2)CC1 | -1.45 | 0.515 | -1.1 | -1.8 | -6.65 |
| CC(C)CNC(=O)c1ccc2c(=O)n(Cc3ccccc3)c3nn(Cc4ccc(F)cc4)c(=O)n3c2c1 | 2.91 | 0 | 8.74 | 0.457 | 4.12 |

— PubChem BioAssay AID1745853 (National Center for Advancing Translational Sciences (NCATS), 2022)
